Data from paper PMC8433397.
These are yes or no findings as the source states them, for the method shown. In cells and extracts the contact can be indirect. Some entries that bind do so weakly or less than the wild type.

Chains of the proteins cited; added tags and fusions are not shown.
UniProt P08047: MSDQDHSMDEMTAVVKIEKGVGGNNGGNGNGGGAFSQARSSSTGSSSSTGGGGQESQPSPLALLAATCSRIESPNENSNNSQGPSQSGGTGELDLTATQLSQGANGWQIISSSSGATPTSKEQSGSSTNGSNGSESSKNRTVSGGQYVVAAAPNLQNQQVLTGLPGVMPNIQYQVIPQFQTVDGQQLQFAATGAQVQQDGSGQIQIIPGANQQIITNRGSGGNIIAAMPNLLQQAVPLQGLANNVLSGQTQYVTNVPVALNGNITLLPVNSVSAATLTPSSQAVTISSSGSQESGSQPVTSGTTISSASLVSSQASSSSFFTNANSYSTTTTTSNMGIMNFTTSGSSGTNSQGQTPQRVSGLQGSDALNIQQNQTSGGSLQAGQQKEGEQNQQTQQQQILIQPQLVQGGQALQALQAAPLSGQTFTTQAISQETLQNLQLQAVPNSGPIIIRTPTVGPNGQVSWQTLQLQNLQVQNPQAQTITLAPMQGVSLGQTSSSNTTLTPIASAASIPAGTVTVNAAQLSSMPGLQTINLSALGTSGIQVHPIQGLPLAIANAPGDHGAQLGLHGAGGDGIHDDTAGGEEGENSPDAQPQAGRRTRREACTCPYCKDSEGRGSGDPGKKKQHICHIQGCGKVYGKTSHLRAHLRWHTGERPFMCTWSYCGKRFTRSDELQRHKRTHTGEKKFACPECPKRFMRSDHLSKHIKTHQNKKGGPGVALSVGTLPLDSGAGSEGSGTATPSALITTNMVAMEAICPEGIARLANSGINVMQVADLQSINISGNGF
UniProt Q08999: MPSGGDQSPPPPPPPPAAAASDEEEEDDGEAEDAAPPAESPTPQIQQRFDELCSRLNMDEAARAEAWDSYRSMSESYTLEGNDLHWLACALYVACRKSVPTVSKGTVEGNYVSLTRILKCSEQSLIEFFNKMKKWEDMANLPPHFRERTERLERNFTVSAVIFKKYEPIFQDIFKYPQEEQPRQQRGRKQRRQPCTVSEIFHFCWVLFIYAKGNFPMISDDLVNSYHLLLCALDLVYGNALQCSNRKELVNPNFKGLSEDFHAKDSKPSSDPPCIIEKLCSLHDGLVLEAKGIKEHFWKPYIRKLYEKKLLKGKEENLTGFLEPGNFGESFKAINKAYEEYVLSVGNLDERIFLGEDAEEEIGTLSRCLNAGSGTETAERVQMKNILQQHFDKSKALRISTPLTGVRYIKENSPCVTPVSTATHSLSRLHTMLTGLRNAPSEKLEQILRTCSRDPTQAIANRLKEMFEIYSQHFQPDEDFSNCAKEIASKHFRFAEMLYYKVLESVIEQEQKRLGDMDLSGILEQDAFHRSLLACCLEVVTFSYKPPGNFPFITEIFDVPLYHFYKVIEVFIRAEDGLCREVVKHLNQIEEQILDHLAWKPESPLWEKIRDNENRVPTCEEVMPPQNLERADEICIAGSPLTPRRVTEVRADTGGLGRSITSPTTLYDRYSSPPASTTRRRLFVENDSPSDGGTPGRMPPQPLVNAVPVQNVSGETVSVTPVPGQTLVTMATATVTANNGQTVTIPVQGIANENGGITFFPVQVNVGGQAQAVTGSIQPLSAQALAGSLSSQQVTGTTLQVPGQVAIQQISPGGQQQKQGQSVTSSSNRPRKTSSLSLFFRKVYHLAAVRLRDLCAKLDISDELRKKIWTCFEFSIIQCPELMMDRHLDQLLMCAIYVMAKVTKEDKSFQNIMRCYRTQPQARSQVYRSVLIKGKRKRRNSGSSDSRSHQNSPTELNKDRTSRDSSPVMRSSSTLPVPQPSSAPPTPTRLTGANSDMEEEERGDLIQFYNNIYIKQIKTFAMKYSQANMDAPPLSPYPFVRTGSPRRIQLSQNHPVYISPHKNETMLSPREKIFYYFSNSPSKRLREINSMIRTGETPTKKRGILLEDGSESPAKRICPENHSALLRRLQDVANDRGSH
UniProt Q12834: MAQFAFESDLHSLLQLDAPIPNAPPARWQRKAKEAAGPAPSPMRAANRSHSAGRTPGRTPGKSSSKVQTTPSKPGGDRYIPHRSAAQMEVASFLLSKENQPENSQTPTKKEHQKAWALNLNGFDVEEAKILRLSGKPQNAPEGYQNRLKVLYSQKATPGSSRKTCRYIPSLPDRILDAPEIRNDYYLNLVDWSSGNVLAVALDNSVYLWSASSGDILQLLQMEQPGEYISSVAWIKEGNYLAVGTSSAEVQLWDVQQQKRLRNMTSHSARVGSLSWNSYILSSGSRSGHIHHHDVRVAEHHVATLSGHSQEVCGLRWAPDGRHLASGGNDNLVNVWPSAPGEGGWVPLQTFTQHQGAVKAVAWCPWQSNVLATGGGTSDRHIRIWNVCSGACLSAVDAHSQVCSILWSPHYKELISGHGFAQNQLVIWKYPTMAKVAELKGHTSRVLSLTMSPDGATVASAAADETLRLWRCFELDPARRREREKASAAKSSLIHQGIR
UniProt P49674: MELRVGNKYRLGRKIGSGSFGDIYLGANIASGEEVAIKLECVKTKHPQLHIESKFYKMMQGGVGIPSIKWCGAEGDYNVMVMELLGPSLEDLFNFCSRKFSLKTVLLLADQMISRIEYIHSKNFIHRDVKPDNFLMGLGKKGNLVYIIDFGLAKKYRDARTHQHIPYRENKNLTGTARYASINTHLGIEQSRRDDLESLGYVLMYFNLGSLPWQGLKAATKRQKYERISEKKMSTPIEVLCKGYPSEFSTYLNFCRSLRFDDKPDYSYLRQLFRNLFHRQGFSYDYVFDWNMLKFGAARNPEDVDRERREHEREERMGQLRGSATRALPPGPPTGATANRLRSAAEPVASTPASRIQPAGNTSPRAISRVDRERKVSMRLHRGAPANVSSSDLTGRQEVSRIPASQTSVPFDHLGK
UniProt Q969H0: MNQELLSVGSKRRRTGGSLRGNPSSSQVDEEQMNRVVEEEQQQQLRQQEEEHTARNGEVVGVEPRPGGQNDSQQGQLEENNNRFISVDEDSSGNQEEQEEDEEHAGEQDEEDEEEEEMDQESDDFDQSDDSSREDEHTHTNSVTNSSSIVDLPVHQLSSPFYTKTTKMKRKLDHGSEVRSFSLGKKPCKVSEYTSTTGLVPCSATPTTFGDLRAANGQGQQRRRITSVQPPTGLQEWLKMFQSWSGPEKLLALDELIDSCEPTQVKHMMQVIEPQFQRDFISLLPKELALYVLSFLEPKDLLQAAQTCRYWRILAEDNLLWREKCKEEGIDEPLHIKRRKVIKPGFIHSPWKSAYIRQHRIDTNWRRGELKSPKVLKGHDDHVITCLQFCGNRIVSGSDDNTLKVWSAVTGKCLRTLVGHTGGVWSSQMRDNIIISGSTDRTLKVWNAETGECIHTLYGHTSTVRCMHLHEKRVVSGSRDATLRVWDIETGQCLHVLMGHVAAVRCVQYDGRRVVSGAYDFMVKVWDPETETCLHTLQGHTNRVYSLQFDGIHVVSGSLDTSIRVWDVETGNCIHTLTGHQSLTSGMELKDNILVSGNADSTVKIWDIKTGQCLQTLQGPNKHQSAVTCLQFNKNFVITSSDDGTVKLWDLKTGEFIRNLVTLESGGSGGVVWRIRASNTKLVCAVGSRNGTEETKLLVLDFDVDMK
UniProt Q9Y297: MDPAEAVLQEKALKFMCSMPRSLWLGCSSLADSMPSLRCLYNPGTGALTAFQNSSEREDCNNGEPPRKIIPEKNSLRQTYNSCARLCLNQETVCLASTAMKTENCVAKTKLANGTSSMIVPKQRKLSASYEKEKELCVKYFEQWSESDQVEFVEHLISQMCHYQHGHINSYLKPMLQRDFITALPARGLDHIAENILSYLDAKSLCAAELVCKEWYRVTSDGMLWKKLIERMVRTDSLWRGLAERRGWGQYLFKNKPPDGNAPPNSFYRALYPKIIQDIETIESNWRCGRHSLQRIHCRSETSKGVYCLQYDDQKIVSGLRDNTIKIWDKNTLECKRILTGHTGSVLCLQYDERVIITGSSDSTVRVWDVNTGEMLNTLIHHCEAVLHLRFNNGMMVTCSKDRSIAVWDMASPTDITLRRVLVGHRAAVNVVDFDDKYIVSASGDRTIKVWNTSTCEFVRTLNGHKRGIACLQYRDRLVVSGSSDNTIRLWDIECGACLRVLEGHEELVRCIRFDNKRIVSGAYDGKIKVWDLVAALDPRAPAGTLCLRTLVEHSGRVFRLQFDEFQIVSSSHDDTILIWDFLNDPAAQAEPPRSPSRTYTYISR

Experiments:
[1] = molecular target: T1, RB1 (wild type, co-immunoprecipitations in cells) (UniProt P06400); experiment: co-IP; in cells; lysis in EBC buffer (50 mM Tris-HCl pH 7.4, 120 mM NaCl, 0.5% NP-40), 1000 μg lysate protein with antibody-conjugated protein A/G beads or HA-/Flag-agarose beads at 4 °C, washed four times with NETN buffer, immunoblot; with or without ribociclib (Fig. 2i)
T1 sequence: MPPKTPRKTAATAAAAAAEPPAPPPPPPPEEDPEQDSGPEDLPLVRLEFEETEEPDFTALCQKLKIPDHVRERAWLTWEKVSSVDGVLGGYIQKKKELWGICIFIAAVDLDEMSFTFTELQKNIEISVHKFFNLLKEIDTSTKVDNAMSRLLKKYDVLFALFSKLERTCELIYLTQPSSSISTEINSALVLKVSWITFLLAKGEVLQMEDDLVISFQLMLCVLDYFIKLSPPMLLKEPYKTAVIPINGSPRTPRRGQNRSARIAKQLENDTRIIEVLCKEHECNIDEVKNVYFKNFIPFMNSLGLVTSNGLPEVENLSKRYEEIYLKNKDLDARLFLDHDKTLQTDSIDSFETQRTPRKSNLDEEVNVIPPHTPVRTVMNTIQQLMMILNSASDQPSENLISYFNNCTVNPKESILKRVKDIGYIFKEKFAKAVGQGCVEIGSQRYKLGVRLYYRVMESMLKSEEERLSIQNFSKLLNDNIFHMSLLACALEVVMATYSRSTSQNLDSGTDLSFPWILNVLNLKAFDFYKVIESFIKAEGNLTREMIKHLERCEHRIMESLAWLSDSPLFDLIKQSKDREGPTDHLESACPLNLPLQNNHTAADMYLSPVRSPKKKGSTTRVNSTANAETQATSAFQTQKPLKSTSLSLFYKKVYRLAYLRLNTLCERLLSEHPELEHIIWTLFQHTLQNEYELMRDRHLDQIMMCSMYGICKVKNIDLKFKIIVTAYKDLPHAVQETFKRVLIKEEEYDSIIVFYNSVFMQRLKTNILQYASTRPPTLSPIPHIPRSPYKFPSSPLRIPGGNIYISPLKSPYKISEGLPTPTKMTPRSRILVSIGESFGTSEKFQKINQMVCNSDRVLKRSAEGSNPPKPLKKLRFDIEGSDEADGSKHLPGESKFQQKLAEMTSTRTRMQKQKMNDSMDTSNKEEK

SP1 = SP1 (UniProt P08047); experiment: as above
[2] = molecular target: T2, RB1 in MDA-MB-231 cells (human (endogenous in MDA-MB-231)) (UniProt P06400); experiment: co-IP; MDA-MB-231 cells serum starved for 48 h, then serum re-addition and harvest at indicated time points; interaction seen in G1 phase
T2 sequence: T1 sequence

p107 = molecular target: T3, p107 (UniProt P28749); experiment: co-IP; in cells; lysis in EBC buffer (50 mM Tris-HCl pH 7.4, 120 mM NaCl, 0.5% NP-40), 1000 μg lysate protein with antibody-conjugated protein A/G beads or HA-/Flag-agarose beads at 4 °C, washed four times with NETN buffer, immunoblot; with or without ribociclib (Fig. 2i)
T3 sequence: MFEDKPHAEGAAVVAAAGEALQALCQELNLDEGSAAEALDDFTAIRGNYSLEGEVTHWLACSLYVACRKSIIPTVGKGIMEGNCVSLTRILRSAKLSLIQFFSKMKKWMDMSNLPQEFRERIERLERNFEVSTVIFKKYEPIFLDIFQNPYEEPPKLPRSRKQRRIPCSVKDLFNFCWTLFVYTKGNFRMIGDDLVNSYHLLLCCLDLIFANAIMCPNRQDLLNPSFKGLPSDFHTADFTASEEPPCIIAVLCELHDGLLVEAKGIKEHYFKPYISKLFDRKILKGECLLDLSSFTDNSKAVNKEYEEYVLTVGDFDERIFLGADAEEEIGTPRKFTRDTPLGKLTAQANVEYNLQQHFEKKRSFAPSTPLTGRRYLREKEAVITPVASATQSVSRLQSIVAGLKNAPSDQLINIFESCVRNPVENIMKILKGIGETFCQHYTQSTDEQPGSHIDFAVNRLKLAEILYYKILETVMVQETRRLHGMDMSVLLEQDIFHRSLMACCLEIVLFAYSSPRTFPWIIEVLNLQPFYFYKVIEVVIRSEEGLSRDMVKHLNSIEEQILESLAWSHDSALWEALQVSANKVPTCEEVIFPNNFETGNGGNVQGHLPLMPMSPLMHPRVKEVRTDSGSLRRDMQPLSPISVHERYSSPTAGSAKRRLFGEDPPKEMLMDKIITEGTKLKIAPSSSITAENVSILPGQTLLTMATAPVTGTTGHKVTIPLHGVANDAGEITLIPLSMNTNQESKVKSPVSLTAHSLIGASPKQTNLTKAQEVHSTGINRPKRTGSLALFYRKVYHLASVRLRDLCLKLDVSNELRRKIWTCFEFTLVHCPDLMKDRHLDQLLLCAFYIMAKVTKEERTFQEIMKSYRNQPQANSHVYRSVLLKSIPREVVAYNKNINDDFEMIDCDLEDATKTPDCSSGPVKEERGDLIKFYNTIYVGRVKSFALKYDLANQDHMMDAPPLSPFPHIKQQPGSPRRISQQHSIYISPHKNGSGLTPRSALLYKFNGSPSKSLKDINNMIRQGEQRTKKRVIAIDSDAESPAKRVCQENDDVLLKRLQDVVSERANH

p130 = p130 (UniProt Q08999); experiment: as above

Substance | binding [1] | binding [2] | further results
CDC20 (co-immunoprecipitation in cells) (from UniProt Q12834 1-499) | binds |  | 
CK1ε (co-immunoprecipitation in cells) (from UniProt P49674 1-416) (enzyme) | binds |  | binding (SP1): binds
CK1ε in MDA-MB-231 cells (from UniProt P49674 1-416) (enzyme) |  | binds | 
FBXW7 (co-immunoprecipitation in cells) (from UniProt Q969H0 1-707) | binds |  | 
βTrCP1 (co-immunoprecipitation in cells) (from UniProt Q9Y297 1-605) | binds |  | binding (p107): no binding; binding (p130): no binding
βTrCP1 in MDA-MB-231 cells (from UniProt Q9Y297 1-605) |  | binds | 
